Results taken from the supplement of paper PMC3334620.
The full ranking holds about 33,000 sequences; the median of “E-score (-0.5 to 0.5)” is about -0.012, and the highest 2% start at about 0.27. Some of the results follow.

Target: T1, Vhr1 (UniProt P40522)
T1 sequence: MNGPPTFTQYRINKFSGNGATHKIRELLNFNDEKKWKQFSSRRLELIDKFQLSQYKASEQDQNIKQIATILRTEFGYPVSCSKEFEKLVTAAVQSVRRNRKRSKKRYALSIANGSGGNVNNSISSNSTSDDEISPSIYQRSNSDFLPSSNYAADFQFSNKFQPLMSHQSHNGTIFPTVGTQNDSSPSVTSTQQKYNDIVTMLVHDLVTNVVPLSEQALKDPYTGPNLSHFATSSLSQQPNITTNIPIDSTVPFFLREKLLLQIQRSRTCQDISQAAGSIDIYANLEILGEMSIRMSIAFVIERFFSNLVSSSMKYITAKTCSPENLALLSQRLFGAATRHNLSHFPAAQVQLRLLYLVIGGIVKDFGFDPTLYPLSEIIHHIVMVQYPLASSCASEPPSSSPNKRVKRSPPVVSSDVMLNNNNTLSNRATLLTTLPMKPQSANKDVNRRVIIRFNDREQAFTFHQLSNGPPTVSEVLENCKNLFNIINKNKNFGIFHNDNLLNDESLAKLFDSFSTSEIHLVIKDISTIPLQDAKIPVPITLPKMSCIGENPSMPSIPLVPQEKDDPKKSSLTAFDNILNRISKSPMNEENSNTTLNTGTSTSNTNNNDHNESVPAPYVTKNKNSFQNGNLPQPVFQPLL
Test: PBM E-score (8-mer binding enrichment) (E-score (-0.5 to 0.5)); higher = stronger / more preferred TF binding; most listed sequences are background and not binding sites
Settings: protein concentration: 200 nM; construct: GST-full length
Method: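 Universal 'all 10-mer' protein binding microarrays (Agilent AMADID 015681) probed with GST-tagged S. cerevisiae TFs (full-length or DBD) made by in vitro transcription/translation (PURExpress), about 100-200 nM. Bound TF was detected with fluorescent anti-GST. Each ungapped 8-mer (which stands for itself and its reverse complement) is scored by the PBM enrichment score (E-score), a modified Wilcoxon-Mann-Whitney statistic from -0.5 to +0.5, computed with the Universal PBM Analysis Suite. Scale: above 0.35 generally sequence-specific binding.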

| Sequence | PBM E-score |
| --- | --- |
| GCTGTCAC | -0.0698 |
| CGGTTCCA | -0.0205 |
| AGGGTTTC | -0.223 |
| CACTCTAG | -0.107 |
| CCCGGAGG | 0.0264 |
| CTATCTAA | -0.192 |
| GCAGGCAA | 0.0572 |
| AGTCCAGG | -0.117 |
| AACAAGAT | 0.04 |
| CAACCGCG | 0.3 |
| CGATGCAC | -0.176 |
| AAATCAAT | 0.0377 |
| CGGCCCCG | -0.0177 |
| AGGGTTAC | -0.0662 |
| ACGGCCAG | -0.00917 |
| AAAGTCAA | 0.0394 |
| AGTTAAAC | -0.0513 |
| AACCATGC | 0.234 |
| ACTTAGGC | -0.172 |
| ACCCCGTC | 0.183 |
| CTGCCAAC | -0.0991 |
| GGCCCAAC | -0.0071 |
| GCTCTGAC | -0.0622 |
| ACCACATG | 0.262 |
| CCGGAACA | -0.0556 |

| Sequence | PBM E-score |
| --- | --- |
| TAAATGAA | -0.0959 |
| CACCCTAA | 0.00036 |
| GCGCTCAA | -0.205 |
| ATCACTGC | 0.289 |
| CGCCTCCA | -0.0111 |
| GAACGATC | 0.0106 |
| TCACTGGA | 0.0394 |
| CTACCCGC | 0.157 |
| CCTCCCGA | -0.15 |
| GTCTGTAA | -0.0248 |
| GGATGGAC | -0.0593 |
| CATTCTGA | -0.0439 |
| ACAGTTCA | 0.0273 |
| GCGGACGC | 0.0124 |
| CCCATTGC | 0.163 |
| ACAGGTAC | 0.0321 |
| TATCAGGA | -0.0274 |
| CAAACATC | -0.0792 |
| AAATAGTT | -0.115 |
| AACGCGCC | -0.0794 |
| GAAATTCC | -0.298 |
| ATGGTAAG | -0.0491 |
| ACCTACAA | -0.0961 |
| CTCGACTC | 0.19 |
| GAGCTTAA | -0.111 |

| Sequence | PBM E-score |
| --- | --- |
| CTTCCACC | -0.113 |
| CCGGTACG | -0.118 |
| AGGAGTAA | 0.0927 |
| GCACTCGA | 0.00258 |
| CCTTGGCG | -0.0852 |
| CGAATAGA | -0.0883 |
| ACTTATTA | 0.135 |
| ACCAGTTC | -0.0486 |
| CATAAGCG | -0.164 |
| ATCTAGTA | 0.0526 |
| GTCCGTAA | -0.134 |
| CCGGAGAA | -0.0476 |
| CGTGTGAC | 0.0881 |
| GCCATCCA | 0.00671 |
| ATCAGGGA | -0.153 |
| AAGTTGGC | -0.0804 |
| ATGCTATG | 0.138 |
| GCTGTTCC | -0.178 |
| ACTCTAAG | -0.173 |
| CGATTGCA | 0.0006 |
| ACTAGTCG | 0.184 |
| CCCCTTAG | -0.123 |
| AACAACCC | -0.0107 |
| CTGTCCTA | -0.0746 |
| GATTCGTA | 0.209 |

| Sequence | PBM E-score |
| --- | --- |
| CATCGAAG | 0.0487 |
| AATTCTGG | -0.15 |
| ATTCGTGC | 0.141 |
| ACTCATTC | 0.367 |
| GTATATTA | 0.0991 |
| CGCTATCC | -0.0309 |
| AGGTCTAC | -0.0342 |
| TCTCCAAA | -0.113 |
| AAAGGCTT | -0.189 |
| AATGTTGA | 0.043 |
| TGATAGAA | -0.115 |
| GATTCTTA | 0.00158 |
| AAGTGCTG | -0.164 |
| ATTTAATG | 0.122 |
| ATGTAGCC | 0.0229 |
| ACATTGGA | -0.0768 |
| ACGAAGCT | -0.0843 |
| AGAGCCGC | 0.128 |
| CCGCAACA | -0.0255 |
| CGCATCAG | 0.118 |
| CCGTTCTA | -0.064 |
| CGCGCCAA | -0.0215 |
| TGAAGGAA | -0.212 |
| ACGGGTCG | 0.157 |
| ATATCACC | 0.125 |

| Sequence | PBM E-score |
| --- | --- |
| GCTGATCA | 0.0474 |
| TATTGAAA | 0.0665 |
| ATTCTTGA | -0.0575 |
| ATTGCCCG | -0.0258 |
| AGCGCTGA | -0.152 |
| CATGGCAG | 0.159 |
| ATCAACCA | 0.162 |
| CCGAGCCG | 0.109 |
| CCGGTTAC | 0.0565 |
| ATGATCAA | 0.145 |
| GGTCCTAC | -0.137 |
| ATTCGTCC | 0.156 |
| ATATACGA | -0.191 |
| CGCAGCGC | -0.149 |
| ATAGCGAC | -0.0153 |
| ACATGTCT | 0.111 |
| AAAGTGAG | 0.0765 |
| AGAGGGCA | -0.208 |
| GCGCCCAC | -0.0258 |
| ACGAAACT | -0.0732 |
| CTAGTGGA | -0.162 |
| AATGCTAC | 0.072 |
| CGCATTCA | 0.0842 |
| GTCTCTTA | -0.233 |
| AAGCAACG | -0.00241 |

| Sequence | PBM E-score |
| --- | --- |
| GAACCGCA | 0.194 |
| AACCTAGA | -0.0515 |
| ATGACTGA | 0.368 |
| GCGCGGCC | -0.157 |
| ACGCCCTG | 0.0701 |
| CATGCGCA | 0.159 |
| AATGGGCT | 0.0797 |
| TGGGGTAA | 0.0316 |
| CCGACGCA | -0.137 |
| AACCGGAA | 0.00223 |
| ACCCAATA | -0.0437 |
| AGCGCTGC | -0.213 |
| CAACACAA | -0.0309 |
| ATAACATG | 0.0371 |
| GATAATAC | 0.144 |
| ATACATAT | 0.367 |
| AATGTAAG | 0.0748 |
| ACGCAGGA | -0.00404 |
| AAGAGGGG | -0.00511 |
| CCGCGTCG | 0.202 |
| GCTTTAAA | -0.187 |
| GGGCGTCA | -0.103 |
| GCCGCCAA | 0.0203 |
| GATTTCAC | 0.205 |
| CGCAAATA | -0.0728 |

| Sequence | PBM E-score |
| --- | --- |
| CCCTCACC | 0.146 |
| GAACATGC | -0.146 |
| CAATCGCC | -0.00346 |
| AGCGATCG | -0.0914 |
| ATCAGCAC | -0.0238 |
| AATTCAAT | -0.169 |
| AGTCGAAC | 0.129 |
| ACGAAATC | 0.0327 |
| CTGAAGAC | -0.125 |
| CCGAGTAA | 0.0614 |
| GGTCACAC | 0.0719 |
| ACGACTTA | -0.0824 |
| GACTGCAC | 0.0745 |
| CCAGACAA | -0.103 |
| TACTACGA | 0.175 |
| TAACCCGA | -0.127 |
| TCCTCTAA | -0.187 |
| TAGGGTGA | 0.151 |
| CTACCCTA | -0.0737 |
| ACAAATAC | 0.176 |
| ATCGGGAC | -0.128 |
| CGTCTCCA | 0.149 |
